Data: PubChem BioAssay AID1345082 (National Center for Advancing Translational Sciences (NCATS), 2018)
Out of some 94,000 compounds screened, about 4,000 (4.3%) were called active. Inconclusive results, whose numbers are uncertain, are shown with a selection of clear calls. The call rests on the fitted dose curve; in most records, active means well fitted inhibition curve with a large enough effect; inconclusive means small, poorly fitted or top-dose-only effect; inactive means no such curve, though single readings can be large or run the other way. A potency beside an inconclusive call is a rough fit, not a confirmed value.

Test: Cytotoxic Profiling in NIH 3T3 Cell Line of Diverse Libraries Using Quantitative High-Throughput Screening; further: nearly all actives have a fitted effect of over 55% in size
Conditions: NIH 3T3 viability, CellTiter-Glo ATP luminescence, 48-72 h; activity change, negative = cytotoxicity: at 96.7 µM (top of the series) unless noted; series mostly up to 96.7 µM
In short: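 Cytotoxicity is measured as loss of cellular ATP: NIH 3T3 cells (400/well) are exposed to compound for 48 or 72 hr at 37 °C, then CellTiter-Glo luminescence is imaged after 10 min at room temperature.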
On the % scale 0 is the no-effect control and ±100 the full control effect; potency means the concentration at half of the fitted maximal effect; tags describe the fitted curve by direction and shape.

Row | Structure (SMILES) | activity change, negative = cytotoxicity | Potency
1 | O=C(NC1CCCCC1)c1c(-c2cccnc2)cc(=O)n2c1CCCC2 | inactive: -24.3% | –
2 | FC(F)(F)c1ccc(CN2CCn3c(nnc3-c3cccnc3)C2)cc1 | – | inconclusive: 70.8 µM [inhibitor, single point]
3 | C#CCNC(=O)c1ccc(-c2ccc(OC)nn2)cc1 | – | inconclusive: 100 µM [inhibitor, single point]
4 | COc1ccc(-c2cc(-c3c(C)noc3C)c3cncn3c2)cc1 | – | inconclusive: 35.5 µM [inhibitor, partial curve, poor fit]
5 | Cc1csc(NC(=O)c2nc3c(o2)CCN(Cc2ccccc2)CC3)n1 | – | inconclusive: 39.8 µM [inhibitor, partial curve, poor fit]
6 | O=C(NCc1cccc(Cl)c1)c1noc(-c2ccc(F)cc2)n1 | – | active: 25.1 µM
7 | Cn1cc(CC(=O)N2CCCc3ncc(C(=O)N4CCC(c5ccccc5)CC4)cc32)c2ccccc21 | – | inconclusive: 44.7 µM [inhibitor, partial curve, poor fit]
8 | COc1ccc(-c2nc(C(C)C)nc3c2CN([S+](=O)([O-])c2ccccc2)CC3)cc1 | inactive: -22.9% | –
9 | Cc1cccc(CN2CCC(n3c(C)nn(C)c3=O)CC2)c1 | inactive: -4.25% | –
10 | COc1ccc(-c2ccc(COc3ccc4c(cnn4CCC(=O)O)c3)cc2)c(Cl)c1 | inactive: -18.5% [at 138 µM] | –
11 | COc1ccc(-c2nnc([C@H]3CCN(Cc4ccc(F)c(F)c4)C3)o2)cc1 | inactive: -23.6% [at 138 µM] | –
12 | O=C(Cc1ccccc1)N1CCC(O)(c2csc(CN3CCc4ccccc4C3)n2)CC1 | inactive: -24.9% | –
13 | COC[C@H]1NC(=O)CC[C@H]1C(=O)NCc1ccccc1 | inactive: -14.8% | –
14 | COc1ccccc1C(=O)N1CCC(CCOc2ccc(C)cc2)C1 (stereo not given) | – | inconclusive: 44.7 µM [inhibitor, partial curve, poor fit]
15 | NC(=O)Cn1ccc2cc(OCC3CCN(C(=O)C4CCCC4)CC3)cnc21 | – | inconclusive: 100 µM [inhibitor, partial curve, poor fit]
16 | Cc1ccc([S+](=O)([O-])NC2CCCN(Cc3ccc(-c4cc(C)cc(C)c4)cc3)C2)cc1 (stereo not given) | – | inconclusive: 31.6 µM [inhibitor, full curve, poor fit]
17 | Cc1cccc(NC(=O)N2CCC3(CC2)CC(N2CCOCC2)CCO3)c1 (stereo not given) | inactive: -9.82% | –
18 | Cc1nn(-c2ccccc2)c2c1C(C1CC1)N(C1CCCN(C(=O)c3ccc(F)cc3)C1)C2=O (stereo not given) | – | inconclusive: 39.8 µM [inhibitor, partial curve]
19 | N#Cc1cccc(-c2c(C(=O)NCc3cccs3)nc3sccn23)c1 | inactive: -26.1% | –
20 | O=C(NCCN1CCCC1)c1nnn2cc(-c3ccccc3)[nH]c(=O)c12 | inactive: -14.8% | –
